Test results from ChEMBL document CHEMBL4888484, “Replenishing the malaria drug discovery pipeline: Screening and hit evaluation of the MMV Hit Generation Library 1 (HGL1) against asexual blood stage Plasmodium falciparum ,using a nano luciferase reporter read-out” (2022).
About 540 (0.36%) of roughly 150,000 compounds showed an effect of 50% or more. The list shows a part of the results.

Test system: Plasmodium falciparum
Test: Primary screen in NF54 nanoGlo assay, in single point, at 2uM, 72h; a lower Z score goes with more inhibition
Format: functional, Erythrocyte
Conditions: timepoint 72 hour

Row | Compound | % Inhibition | Z score
1 | O=S(=O)(NC[C@H]1CCCNC1)c1cccc(F)c1F | -13% | 1.86
2 | CC(C)CNC1OCc2ccccc2CO1 | -6% | 0.72
3 | CS(=O)(=O)NCc1ccc(S(N)(=O)=O)cc1 | 3% | -0.39
4 | COC[C@H](C)NC(=O)c1ccc(C)c(C)c1 | 6% | -0.82
5 | Cc1ccc(Cn2nc(C3CCNCC3)n(Cc3ccccc3)c2=O)cc1F | -12% | 1.32
6 | O=C(O)C1CCN(C(=O)C2Cc3ccccc3O2)C2CCCC12 (stereo not drawn) | -13% | 1.6
7 | Cn1nncc1CN1CCC(S(=O)(=O)N2CCCC2)CC1 | -14% | 2.63
8 | O=C1[C@H]2CCCCN2C(=O)N1Cc1ccc2cncn2c1 | -7% | 0.93
9 | N#C[C@@H]1CC[C@H](NC(=O)NC(Cc2ccccc2)c2ncco2)C1 (stereo partly drawn) | -4% | 0.77
10 | Clc1cccc(C2(c3nc([C@H]4CCOC4)no3)CC2)c1 | 3% | -0.32
11 | CCC[C@H]1C[C@@H](NC(C)=O)C[C@@H](C2CCCCC2)O1 | -6% | 0.6
12 | Cn1ccc(-c2cc(C(=O)NC[C@H]3Cc4ccccc4CN3)no2)n1 | 2% | -0.27
13 | Cn1c(=O)[nH]c(=O)c2c1nc(NC1CCCCC1)n2C[C@H](O)COc1ccccc1 | -11% | 1.87
14 | O=C(c1c[nH]c2ccccc12)N1CCC[C@H](Oc2cccnn2)C1 | 1% | -0.11
15 | CNC(=O)c1cccc(N[C@@H]2COCC[C@@H]2OCc2c(C)noc2C)n1 | -5% | 1.02
16 | CCOC(=O)CO/N=C(/c1nonc1N)N1CCOCC1 | 4% | -0.64
17 | CCCn1ncc(C)c1NC(=O)CN1CCCCC1=O | -12% | 2.29
18 | Cn1ccc2cc(C[C@@H]3CC[C@H](CN4CCC(C(=O)O)CC4)O3)ccc21 | -9% | 1.61
19 | Cn1cccc1-c1nnc(C2(c3ccc(Br)cc3)CCOCC2)o1 | -1% | 0.21
20 | Cc1ccc(CN)c(OCCCC(C)C)c1 | 1% | -0.18
21 | COc1cnccc1C(C)NCC(O)C(F)(F)F (stereo not drawn) | -5% | 0.54

Row | Compound | % Inhibition | Z score
22 | Cc1cc(CS(=O)(=O)CC(=O)N(C)Cc2ccccc2)on1 | 9% | -1.41
23 | Cc1ccc(COC2CN(S(=O)(=O)c3cccc4nsnc34)C2)cc1 | 0% | 0.03
24 | CC(C)C(=O)N1CCCN([C@H]2CCc3ccccc3NC2=O)CC1 | -7% | 0.79
25 | COc1ccc(C2c3cnn(C(C)(C)C)c3NC3=NC(=O)N(c4ccc(Cl)cc4)C32)cc1O (stereo not drawn) | -2% | 0.26
26 | O=C(NCc1ccccc1)N1C[C@H]2CC[C@@H](C1)N(CC1CCC1)C2=O | 8% | -1.19
27 | CC[C@H]1C[C@@H]1C(=O)NCC1Cc2ccccc2C1 | -9% | 1.75
28 | Cc1ccc(NS(=O)(=O)c2cc(-c3cc(C(F)(F)F)on3)sc2C)cc1C | 3% | -0.44
29 | COc1ccc(N2CCN(C(=O)CCC3=Nc4ccccc4S(=O)(=O)N3)CC2)cc1 | -2% | 0.28
30 | Cc1csc(CN(C)C(=O)c2ccc(Nc3ccncc3)cc2)n1 | 3% | -0.4
31 | C[C@@H]1CN(C[C@@H]2CN(C(=O)c3ccc4c(c3)OCO4)C[C@@H]2CO)C[C@H](C)O1 | -8% | 0.95
32 | O=C(NC(c1ccccc1)[C@H]1C[C@@H](O)C1)C1CCN(C2CCCC2)CC1 (stereo partly drawn) | 4% | -0.53
33 | CCN1c2ccc(F)cc2C(=O)NC12CCN(C(=O)c1ccc(F)c(Cl)c1)CC2 | 3% | -0.39
34 | CC(=O)N(c1nn(CN2CCC(Cc3ccccc3)CC2)c(=S)s1)C1CC1 | 4% | -0.71
35 | O=C(Nc1ccc(N2CCCCC2)cc1)c1cccc(S(=O)(=O)N2CCCc3ccccc32)c1 | -5% | 0.84
36 | CN(C)CCCn1ccnc1C1CCN(C(=O)N(C)c2ccccc2)CC1 | -7% | 0.67
37 | CCn1c(=O)c(-c2noc(C(=O)N3CCN(C)CC3)n2)nn(-c2ccc(F)cc2)c1=O | -11% | 2.04
38 | CCc1nc2cc(N)cc(C(=O)N(C)Cc3nccs3)c2n1CCCOC | -9% | 1.65
39 | Cc1[nH]c2c(-c3c(C#N)c(N)nc4c3CNCC4)cccc2c1C | -6% | 1.09
40 | C[C@@H](c1ncc(C(C)(C)C)o1)N1CCC(NC(=O)c2ccc[nH]2)CC1 | 6% | -0.88
41 | O=C(NC(c1ccccc1)c1ccccc1F)NC(c1ccccc1)c1ccccc1F (stereo not drawn) | -8% | 1.15
42 | CCCCn1nnnc1CN1CCCC(C2(C)NC(=O)NC2=O)C1 (stereo not drawn) | -4% | 0.68

Row | Compound | % Inhibition | Z score
43 | CCOCC1(CNC(=O)CC(=O)Nc2cc(Cl)ccc2C)CCC1 | -4% | 0.54
44 | CC(C)C(=O)N(CC1CN(Cc2ccco2)CC1c1cccc(F)c1)C(C)C (stereo not drawn) | -3% | 0.44
45 | CC(C)c1nnc(N2CC[C@H](O)CC(C)(C)C2)s1 | -9% | 1.39
46 | CS(=O)(=O)Nc1ccc(-c2noc(C3(C#N)CCCC3)n2)cc1 | -12% | 1.66
47 | Cc1nn(C[C@H]2COc3ccccc3O2)c(=O)n1C | -7% | 1.11
48 | Cc1nnnn1CCC(=O)N[C@H]1CC[C@@H]2CCC[C@@H]21 | -7% | 0.73
49 | CC1CCCC1(C#N)NC(=O)c1cnc2c(c1)ncn2C (stereo not drawn) | -16% | 2.37
50 | Cc1ccc(N(Cc2ccccc2)C(=O)c2cc(S(=O)(=O)N3CCOCC3)ccc2F)cc1 | 0% | -0.02
51 | Cc1ccc(C)c(NC(=O)Cn2cnc(-c3noc(-c4ccc(F)cc4)n3)c2)c1 | -5% | 0.65
52 | COC(=O)c1n[nH]cc1-c1cc(-c2cccc(O)c2)nc(N)c1C#N | 4% | -0.36
53 | C=C(C)CNC(=O)NCc1cn(C)nc1CC | -12% | 1.24
54 | COc1ccc(C(=O)N2CC(=O)N(CC3CC3)C3(CCCCC3)C2)c(C)c1 | -6% | 0.97
55 | CC(C)c1noc(N2CC3C(C2)C3(C)C)n1 (stereo not drawn) | -12% | 1.98
56 | O=C(NCc1ccccc1F)c1nc(-c2cnccn2)no1 | -9% | 1.3
57 | CC(NC(=O)C1CC1c1ccco1)C(O)c1c(F)cccc1Cl (stereo not drawn) | -16% | 2.24
58 | CC(C)c1ccccc1NC(=O)Cn1c(=O)n(CCc2cccs2)c(=O)c2sccc21 | 5% | -0.78
59 | CCn1c(CN2CC[C@@]3(CCCN(C(=O)CCOC)C3)C2)nc2ccccc21 | -7% | 1.5
60 | COC[C@]1(C)NC(=O)N(Cc2csc(C3CCCC3)n2)C1=O | -9% | 1.14
61 | C[C@]1(CO)CCCN(CCc2ccncc2)C1 | -3% | 0.36
62 | CCOC(=O)CN(CC(C)C)C(=O)Cn1cnnn1 | -4% | 0.71
63 | CC(C)c1nnsc1CNc1cc(N2CCN(C)CC2)nc(N)n1 | 5% | -0.91

Row | Compound | % Inhibition | Z score
64 | CC(C)NC(=O)[C@H](Cc1ccccc1)NC(=O)c1cccnc1 | -5% | 0.55
65 | CCCc1ccc(CN2CCN(C(=O)NCC)[C@H]3CS(=O)(=O)C[C@H]32)o1 | -2% | 0.42
66 | O=C1[C@@H]2C[C@H](O)CCN2C(=O)CN1Cc1n[nH]c2c1CCCCC2 | -9% | 1.79
67 | CN(C)S(=O)(=O)N1C[C@H]2CC[C@@H](C1)N(Cc1ccc(F)c(Cl)c1)C2 | 3% | -0.55
68 | CC1CCC(n2cc(C(=O)C(F)(F)F)cn2)CC1 (stereo not drawn) | -15% | 1.79
69 | CCCCNC(=O)N1C[C@H](O)C[C@H]1c1n[nH]c(-c2ccccc2)n1 | 2% | -0.3
70 | O=C(c1cnc2ccccc2n1)N1CC[C@H](N2C(=O)CNC2=O)C1 | -9% | 1.78
71 | Cc1cccc(CN2C(=O)OC(c3ccc(NC(=O)c4cccs4)cc3)C2C(=O)NCCN(C)C)c1 (stereo not drawn) | -12% | 1.71
72 | Cc1c(NC(=O)CN2C(=O)C(=O)c3ccccc32)c(=O)n(-c2ccccc2)n1C | 3% | -0.55
73 | Cc1ccsc1C(=O)Nc1cccc(C#Cc2ccccn2)c1 | -1% | 0.1
74 | CC(C1CC1)N(C(=O)C1CCS(=O)(=O)C1)c1cccc(C(F)(F)F)c1 (stereo not drawn) | -10% | 1.22
75 | Cc1ccc(O[C@H]2COCC[C@H]2NC(=O)c2ccc(C#N)nc2)cn1 | -4% | 0.49
76 | CC(=O)Nc1cc(C)c(O)c(NC(C)=O)c1 | -8% | 1.08
77 | Cc1ncsc1CN(C)c1ccc(C(=O)N2CCc3ccccc32)cn1 | -14% | 1.38
78 | Cc1ccoc1C(=O)N1CCNC(=O)C1 | -6% | 1.17
79 | Nc1nc(C(=O)NC2(CN3CCCCC3)CC2)cs1 | 1% | -0.09
80 | CCN1CCN(CCn2cc(Cl)cn2)C(=O)C1=O | 4% | -0.78
81 | CC[C@@H]1C(=O)NCCCN1CC(=O)Nc1cc(OC)ccc1OC | 10% | -1.39
82 | CCOc1ccc(S(=O)(=O)N2CC[C@H](CNC(=O)NC)[C@H](N(C)C)C2)cc1 | -10% | 1.39
83 | Cc1nc(Cn2ccnc2C)n(CC(F)(F)F)n1 | -7% | 1.15
84 | CC(=O)c1cccc(NC(=O)CN2CC(c3nc4ccccc4s3)C2)c1 | -16% | 2.03
